This passage reports z-score results from PubChem BioAssay AID488969 (Vanderbilt High Throughput Screening Facility, 2010).

The structures appear in SMILES notation. The full ranking holds about 110,000 compounds; the median of “z-score” is about -0.1, and the highest 2% start at about 2. The list shows a part of the results. Activity calls are given as the source filed them.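 Rule for the calls: active = z-score in the third read window above 3 or below -3; inactive = the rest.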

For the assay, the target named is Metabotropic glutamate receptor 8 (Rattus norvegicus) (UniProt P70579). Kind of assay: rat mGluR8 modulators via GIRK flux, primary screen, cell-based, thallium flux, HTS (AID 488969). As to conditions: HEK293 rat mGluR8, GIRK (G protein-gated inwardly rectifying potassium channel) thallium flux, FluoZin2; at 10 µM; stronger effect = higher value; submaximal glutamate (EC20) added with thallium.
Sequence of UniProt P70579 (P70579 whole entry, looked up): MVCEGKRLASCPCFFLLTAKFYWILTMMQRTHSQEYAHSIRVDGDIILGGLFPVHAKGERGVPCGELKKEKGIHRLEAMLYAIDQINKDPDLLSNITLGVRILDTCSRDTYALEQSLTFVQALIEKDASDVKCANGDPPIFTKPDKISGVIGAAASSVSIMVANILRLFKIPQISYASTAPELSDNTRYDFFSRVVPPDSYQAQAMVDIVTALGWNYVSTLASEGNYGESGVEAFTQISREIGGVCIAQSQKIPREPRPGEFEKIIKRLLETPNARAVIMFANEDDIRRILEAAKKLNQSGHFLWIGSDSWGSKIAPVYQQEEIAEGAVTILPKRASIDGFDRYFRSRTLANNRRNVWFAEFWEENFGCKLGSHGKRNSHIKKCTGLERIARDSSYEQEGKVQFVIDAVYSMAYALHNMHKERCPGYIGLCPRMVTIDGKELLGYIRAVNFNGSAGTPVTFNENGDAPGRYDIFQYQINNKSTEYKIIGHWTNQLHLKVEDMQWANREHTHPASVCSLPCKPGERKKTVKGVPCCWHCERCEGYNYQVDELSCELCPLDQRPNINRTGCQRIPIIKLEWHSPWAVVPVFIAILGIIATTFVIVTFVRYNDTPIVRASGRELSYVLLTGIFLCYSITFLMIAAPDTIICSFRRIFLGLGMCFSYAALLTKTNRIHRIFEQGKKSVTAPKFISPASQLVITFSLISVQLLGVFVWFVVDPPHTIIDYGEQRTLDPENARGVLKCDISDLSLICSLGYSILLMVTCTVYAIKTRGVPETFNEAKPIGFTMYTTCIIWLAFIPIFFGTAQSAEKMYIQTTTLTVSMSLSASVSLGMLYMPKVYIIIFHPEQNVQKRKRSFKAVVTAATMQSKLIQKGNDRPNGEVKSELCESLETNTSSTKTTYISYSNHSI
In turn, `O=C1C2CC=C(Cl)CC2C(=O)N1CCCCCCN1C(=O)C2CC=C(Cl)CC2C1=O` (centres undefined) came in with a z-score of 0.369.

The compound `CSCCC(NC(=O)c1ccc(Cl)cc1)C(=O)OCC(=O)Nc1cc(Cl)ccc1C` (centres undefined) came in with a z-score of -0.211.

Compound `CCOc1ccc(N2CC(C(=O)Nc3ccc(S(=O)(=O)Nc4ncccn4)cc3)CC2=O)cc1` (centres undefined) yielded a z-score of 0.292.

Regarding `COc1cc(/C=N/c2oc(-c3ccccc3)cc2C#N)ccc1O`, the z-score is -0.17.

Regarding `Cc1cccc(C2Nc3ccccc3C(=O)N2c2ccc(F)cc2)n1` (centres undefined), the z-score is -0.433.

`O=C(O)C1CCCCN1S(=O)(=O)c1ccc2ccccc2c1` (centres undefined): the z-score was -0.217.

`Cc1nc2ccc(NC(=O)CCS(=O)(=O)c3ccccc3)cc2s1` gave a z-score of -0.000116.

With `O=C(Nc1ccc(N2CCCCC2)cc1)c1cccnc1`, the z-score was -0.0608.

For `O=C(NC1CCCCCC1)c1ccc(S(=O)(=O)NCc2ccco2)cc1`, the z-score is -0.158.

Take `CCc1ccc(NC(=O)Cn2nc(C(F)(F)F)c3c2CCC3)cc1`: the z-score amounted to 0.078.

`Cc1c(C(=O)Oc2ccc(-c3cnc4ccccc4n3)cc2)cccc1[N+](=O)[O-]`: the z-score is 0.413.

On to `Cc1ccc(-n2ncc3c(N4CCC5(CC4)OCCO5)ncnc32)c(C)c1`, for which the z-score is -0.17.

With `Cn1nnnc1SCc1cc(=O)n2ccsc2n1`, the z-score was -0.651.

`Cc1c(Nc2nc(-c3ccc(Cl)cc3)cs2)c(=O)n(-c2ccccc2)n1C` gave a z-score of -2.12.

On to `CC1(C)N(OCc2ccccc2)C(=O)C(=O)N(OCc2ccccc2)C1(C)C`, for which the z-score is -0.0501.

`CN(C)CCCn1c(SCC(=O)N2c3ccccc3Sc3ccccc32)nc2ccccc2c1=O` had a z-score of -0.356.

Compound `CN(CCO)c1nc(N)c2c(N)nc3c(c2c1C#N)CC(=O)N3C1CCCC1` displayed a z-score of -0.233.

In the case of `O=C(NCc1ccco1)c1n[nH]c(=O)c2ccccc12`, the z-score stood at 1.16.

On to `O=C(COC(=O)c1ccc(Cl)c(S(=O)(=O)N2CCc3ccccc3C2)c1)Nc1ncc(Cl)cc1Cl`, for which the z-score was 0.139.

Take `CCOn1c(SC(C)C)nc2ccccc2c1=O`: the z-score was 1.92.

`CCOC(=O)CCc1c(C)c(C#N)c2nc3ccccc3n2c1-n1ccnc1` gave a z-score of 0.103.

Regarding `CCN1CCCC1CNC(=O)CSCc1nc(-c2ccccc2C)oc1C` (centres undefined), the z-score was active: 4.01.

`Cc1c(NC(=O)C(C)Oc2ncnc3ccccc23)c(=O)n(-c2ccccc2)n1C` (centres undefined): the z-score was -0.431.

Compound `COc1cc(NC(=O)c2ccc(Cl)cc2)c(OC)cc1Cl` returned a z-score of 1.1.

`O=C(c1cccc(S(=O)(=O)N2CCOCC2)c1)N1CCCCCC1`: the z-score was found to be 0.38.

For the compound `O=C(NC(=S)N1CCN(c2c(Cl)cccc2[N+](=O)[O-])CC1)c1cccs1`, the z-score was active: -4.63.

On to `CCCS(=O)(=O)N1CCCC(C(=O)NCC2CCCO2)C1` (centres undefined), for which the z-score stood at 0.0279.

On to `COCCCNC(NC(=O)c1ccc(Br)cc1)C(Cl)(Cl)Cl` (centres undefined), for which the z-score is -0.186.

`COc1ccc(C(=O)C2CCN(S(=O)(=O)c3ccc4c(c3)OCCO4)CC2)cc1` yielded a z-score of 0.21.

`O=C(O)c1ccccc1NN=C1CCCCC1` registered a z-score of 0.125.

`COc1ccc2nc3oc(C(=O)N4CCCCC4)cc3cc2c1` displayed a z-score of -0.277.

`N#C/C(=C\c1cn[nH]c1-c1ccccc1)C(=O)NC1CCCCCC1` displayed a z-score of -0.228.

In the case of `O=C(Cc1ccc(F)cc1)OCC(=O)c1cc2ccccc2o1`, the z-score is -0.195.

Consider `CC1=CC(c2ccccc2)n2nc(N3C(=O)c4ccccc4C3=O)nc2N1` (centres undefined), for which the z-score was -0.139.

`Cc1cc2oc(=O)cc(C)c2cc1NC(=O)CCC(=O)O` had a z-score of 1.3.

`CC(=O)c1c(N2CCN(C(=O)C3CCCO3)CC2)nc(=S)n(-c2ccccc2)c1C` (centres undefined) showed a z-score of -0.0325.

`COc1ccc(-c2cc3ccccc3n2CC(O)CNCCO)cc1` (centres undefined): the z-score was 0.0517.

In turn, `N#Cc1ccc(COC(=O)Cn2nnc(-c3ccccc3)n2)cc1` displayed a z-score of -0.843.

Compound `O=C(CCS(=O)(=O)c1ccccc1)Nc1nc(-c2ccccn2)cs1` displayed a z-score of -0.105.

For `Cc1cccc(C(=O)Oc2ccc(/C=N/NC(=O)c3ccccc3O)cc2)c1`, the z-score was -0.163.

For `C/C(=N/Nc1nc(-c2ccc(Cl)cc2)cs1)c1cccs1`, the z-score turned out to be 0.187.

Compound `C=CCc1c(C)nc(N)[nH]c1=O` returned a z-score of 0.0155.

Turning to `COc1cccc(-c2cc(C(F)(F)F)n3nc(N)nc3n2)c1`, the z-score was -0.386.

Regarding `Cc1[nH]n(-c2ccccc2)c(=O)c1C(C[N+](=O)[O-])c1ccc(Br)cc1` (centres undefined), the z-score amounted to 0.135.

As to `CCOc1ccc(C(=O)N(Cc2ccc(N(C)C)cc2)C2CCS(=O)(=O)C2)cc1` (centres undefined), the z-score turned out to be 0.0495.

Compound `Cn1cccc1Cc1nnc(SCC(=O)NCC2CCCO2)n1CCc1ccccc1` (centres undefined) returned a z-score of 0.779.

Turning to `CCOC(=O)C(CC)/C(C)=N/NC(=O)c1ccc([N+](=O)[O-])cc1` (centres undefined), the z-score is -0.221.

`COC(=O)c1sccc1NC(=O)CSc1cc(Cl)ccc1Cl` showed a z-score of -0.165.

`Cc1ccsc1C(=O)NC(C)c1ccc2c(c1)OCO2` (centres undefined) yielded a z-score of -0.314.

On to `O=C1c2ccccc2CC1(Cc1ccccc1)Cc1ccccc1`, for which the z-score is -0.201.

`CC1(C)NC(=O)N(CCCOc2ccc(Br)cc2Cl)C1=O` gave a z-score of -0.26.

Compound `CC(C)N1C(=O)C2C(C(=O)NC3CCCCC3)C3C=CC2(O3)C1C(=O)NC1CCCC1` (centres undefined) returned a z-score of -0.218.

In turn, `C/C(Cc1ccccc1)=N\NC(=O)CNC(=O)c1ccc(Br)cc1` gave a z-score of -0.0251.

Compound `c1csc(-c2nn3c(C4COc5ccccc5O4)nnc3s2)c1` (centres undefined) registered a z-score of -0.697.

Compound `O=C(NNS(=O)(=O)c1ccc2ccccc2c1)C1CCN(Cc2ccccc2)CC1` gave a z-score of -0.161.

The compound `OCc1cn(-c2ccccc2)nc1-c1ccc(-c2nn(-c3ccccc3)cc2CO)cc1` registered a z-score of 0.428.

`O=C(COC(=O)c1ccc(Br)cc1)NCc1ccccc1` registered a z-score of -0.417.

Consider `O=C(c1cccc(COc2ccc(Cl)cc2Cl)c1)N1CCN(c2ccccn2)CC1`, for which the z-score is 0.679.

`O=C(OCCN(C1=NS(=O)(=O)c2ccccc21)c1ccccc1Cl)c1ccc(Cl)cc1` came in with a z-score of 0.0751.

The compound `COc1cccc(/C=C2/CN(C)CC3=C2OC(N)=C(C#N)C3c2cccc(OC)c2)c1` (centres undefined) displayed a z-score of -0.724.

Compound `Cc1ccc(CNC(=O)CN(c2cccc([N+](=O)[O-])c2)S(=O)(=O)c2ccccc2)cc1` returned a z-score of -1.01.

The compound `Clc1ccc(-c2csc3ncnc(Cl)c23)cc1` yielded a z-score of 0.28.

`O=C(CN1CCC(Cc2ccccc2)CC1)NC(=O)NCc1ccccc1` came in with a z-score of 0.0382.

For `CCCc1[nH]nc2c1C(c1ccc(OC(=O)c3ccco3)cc1)C(C#N)=C(N)O2` (centres undefined), the z-score was determined as 0.63.

The compound `O=c1[nH]c(=O)n(Cc2ccccc2)c2nc(-c3ccc(Oc4ccc(F)cc4)c([N+](=O)[O-])c3)n(CCO)c12` registered a z-score of -0.038.

Consider `CCCCN(C)C(=O)C1CCN(Cc2ccc(OCc3ccccc3)cc2)CC1`, for which the z-score is 0.414.

`CCCCn1c(C(C)O)nc2ccccc21` (centres undefined) gave a z-score of -0.321.

The compound `Cc1cc(C)n(C(=O)CNC(=O)COc2ccccc2)n1` yielded a z-score of 0.214.

Compound `O=C(Nc1ccc2c(c1)CCC2)c1cccc(S(=O)(=O)N2CCN(c3ccccc3)CC2)c1` came in with a z-score of -0.0939.

Consider `Cc1ccc(N2C(N)=C(C#N)C(c3cccnc3)C3=C2CCCC3=O)cc1` (centres undefined), for which the z-score stood at 1.05.

Take `O=C(O)CSc1c(-c2ccccc2)c2cc(Cl)ccc2[nH]c1=O`: the z-score was -0.401.

`O=C(c1ccc(Br)o1)N1CCN(c2ccc(F)cc2)CC1` displayed a z-score of 0.331.

In the case of `Cc1nc2cc(NC(=O)N3CCCCC3)ccc2n1C`, the z-score is 0.994.

The compound `COc1cc2c(cc1NC(=S)NC(=O)/C=C/c1ccc(OC)c(OC)c1)oc1ccccc12` showed a z-score of 0.372.

For the compound `COc1ccc(C)c2sc(N3CCCC3)nc12`, the z-score is -0.788.

`COc1cc(C)c(C)cc1S(=O)(=O)N1CCN(Cc2ccc3c(c2)OCO3)CC1` gave a z-score of -0.615.

In turn, `CCn1c(=O)c2c(cnn2C)c2ccccc21` showed a z-score of -0.227.

In turn, `COCCN1C(=O)c2ccc(C(=O)NCc3cccnc3)cc2C1=O` displayed a z-score of -0.0574.

On to `CCOCCCNS(=O)(=O)c1ccc2c(c1)CCN2C(C)=O`, for which the z-score was found to be 0.645.

The compound `c1ccc2c(c1)NC1(CCCCCC1)n1c-2nc2ccccc21` had a z-score of -0.11.

`N#CCc1ccc(C(=O)c2ccccc2F)s1` had a z-score of -0.117.

Take `O=C1NC(=S)S/C1=C/c1ccc(N2CCOCC2)o1`: the z-score was determined as 0.253.

Compound `COc1ccc(NC(=O)Cn2nnc(-c3ccccc3NC(=O)c3cccs3)n2)cc1` gave a z-score of -0.484.

The compound `Clc1ccc(OCc2nn3c(-c4ccccc4)nnc3s2)c(Cl)c1` showed a z-score of -0.156.

`C=CCn1c(-c2ccc(S(=O)(=O)N3CCOCC3)cc2)csc1=Nc1ccccc1`: the z-score stood at 0.017.

The compound `COc1ccc(CC(NC(C)=O)C(=O)NC2CCN(S(=O)(=O)c3ccccc3)CC2)cc1OC` (centres undefined) yielded a z-score of -0.0462.

The compound `Cc1cc(C)c(-n2nnnc2SC(C)C)c(C)c1` came in with a z-score of -0.84.

`CCN(CC)c1ccc(NC2=C(Cl)C(=O)c3ccccc3C2=O)cc1` showed a z-score of -0.441.

Turning to `Cc1cc(C)nc(SCC(=O)NCc2ccco2)n1`, the z-score was found to be 0.232.

`CCOC(=O)C1CCN(C(=O)/C=C/c2ccc(OC)cc2)CC1` gave a z-score of -0.702.

With `CCOC(=O)c1ccc(NC(=S)N(CCCN2CCCCC2)Cc2ccco2)cc1`, the z-score stood at 0.0993.

Compound `COc1ccc(NC(=S)N(CCCN2CCCC2)Cc2cccs2)cc1` returned a z-score of -0.236.

As for `Cc1sc2ncn3ncnc3c2c1C`, the z-score was 0.0326.

The compound `Cc1ccc(SCC(=O)O/N=C(\N)c2cccc([N+](=O)[O-])c2)cc1` showed a z-score of -0.154.

Compound `O=C(Cn1cc(C(F)(F)F)cc(Cl)c1=O)NCCc1ccccc1` registered a z-score of -0.155.

Turning to `COc1cccc(C(C(=O)NC2CCCCC2)N(C(=O)Cc2cccs2)c2ccc(-n3cnnn3)c(OC)c2)c1` (centres undefined), the z-score was -0.139.

On to `CCC1(C)Cc2c(sc3nnn(CC(=O)Nc4ccc(C)cc4)c(=O)c23)CO1` (centres undefined), for which the z-score is -0.437.

In turn, `O=C(CCCCCn1c(=O)[nH]c2ccsc2c1=O)NCc1ccc(F)cc1` showed a z-score of -0.724.

`Cc1ccc2c(c1)nc(NCCO)n2C`: the z-score is -0.14.

In turn, `O=C(OCC(=O)c1c[nH]c2ccccc12)c1cccc(S(=O)(=O)N2CCCCCC2)c1` came in with a z-score of -0.277.

`Cc1cc(=O)n(-c2ccc3ccccc3n2)[nH]1` displayed a z-score of -0.135.

The compound `COc1c(Br)cc(C(N)=O)cc1OCc1ccccc1` gave a z-score of -0.231.

As to `CCC(=O)c1ccc2ncccc2c1`, the z-score is -0.00376.

`COC(=O)c1ccccc1NC(=O)CSc1ccccn1` came in with a z-score of -0.121.

`CCOc1c2ccc(C(=O)NC3CCCc4ccccc43)cc2nn1CC` (centres undefined) yielded a z-score of -0.225.

Take `Cc1cc(C)n(C(=O)c2ccc(S(=O)(=O)N3CCCC3)cc2)n1`: the z-score came out at 0.0709.

Consider `C/C(N)=C(/C#N)C(=O)COC(=O)c1cc(-c2cccc(Br)c2)nc2ccccc12`, for which the z-score was determined as 0.115.

Compound `CC(C)C1N=C2c3ccccc3N=C(SCc3cc(=O)n4ccccc4n3)N2C1=O` (centres undefined) came in with a z-score of -0.316.

`COC(=O)C1(c2ccccc2)NC(c2cccs2)C2C(=O)N(c3ccccc3)C(=O)C21` (centres undefined) showed a z-score of -0.227.
